# Experimental data as given in US6475985B1, “Nucleosides with antiviral and anticancer activity” (priority 1998, dated 2002).
# What was measured:
# HIV-1 = experiment: Test A: antiviral activity against HIV-1 isolates and laboratory strain in peripheral blood lymphocytes; format: cell-based; settings: for IC50: read-out: Mean IC50 in PBLs; for antiviral activity relative to DZA: HIV-1 in peripheral blood lymphocytes
# Description: The antiviral activity of representative compounds of the invention was determined with matched HIV-1 isolates and a laboratory HIV-1 strain as previously described (D. L. Mayers et al., Proc. Natl. Acad. Sci., USA 1995, 92, 215-219; and C. R. Wagner et al., Bioorganic and Medicinal Chemistry Letters, 1995, 5, 1819-1824).
# rat mammary carcinomas = experiment: Test D: in vivo anti-breast tumor activity, methyl nitroso urea induced mammary tumors; set-up: species or system Sprague-Dawley rats; settings: i.p. daily
# Description: The in vivo anti-breast tumor activity of AZT and compound 9 against rat mammary carcinomas, was evaluated as follows. Fifty-day old female Sprague-Dawley rats with an average weight of 170 g we given 50 mg/kg of methyl nitroso urea in 1 mL of water by i.p. injections over a period of one week. One hundred percent of the rats developed mammary tumors between 2 to 3 months after treatment. Once a week, the rats were lightly anesthesized with ether and the tumors were measured in 2 dimensions with a caliper. The tumor volume was calculated based on an ellipsoid tumor shape with the following equation: v=4/3Pr12r2, where r^1 is the minor radius. The rats were selected after at least one tumor pet rat had reached 1 cm in a single dimension. The rats were divided into control and experimental groups. Each experimental rat was matched with a control rat with similar sized tumors and the overall number of tumors at the beginning of the experiment was approximately the same for both groups. The animals were divided into 4 treatment groups with 5 animals in each group, and injected i.p. daily for the duration of the experiment. Tumor size and weight was determined weekly.
# Tumor volumes of control and treated rats were measured and plotted on a growth curve (FIG. 6). For the control animals, the tumor size approximately doubled in volume every seven days. […]
# MCF-7 cells [1] = system: MCF-7 cells
# [2] = system: HIV (antiviral activity in PBMC's); experiment: Test B: antiviral activity in PBMC's; format: cell-based
# Source text: The antiviral properties of compounds of the invention can also be determined in PBMCs using a procedure similar to that described by E. I. McIntee, et al. J. Med. Chem., 1997, 40, 3323-3331.
# Log P = format: physicochemical; settings: as demonstrated by the Log P values
# MCF-7 cells [3] = experiment: Test C: cytotoxicity in MCF-7 breast cancer cells
# [4] = Donor 1, read-out: IC50 PBMC's Donor 1
# [5] = Donor 2, read-out: IC50 PBMC's Donor 2
smiles,measurement,setting,value
"Cc1cn([C@H]2C[C@H](N=[N+]=[N-])[C@@H](CO)O2)c(=O)[nH]c1=O [AZT, reference compound]",IC50,HIV-1; HIV-1 isolate A012 post-AZT,> 1000 nM
same,IC50,HIV-1; HIV-1 isolate A012 pre-AZT,1.2 nM
same,IC50,HIV-1; HIV-1 isolate G910 AZTr,700 nM
same,IC50,HIV-1; HIV-1 isolate LAI,4 nM
same,reduction of the rate of tumor growth,rat mammary carcinomas,~80%
same,CC50,MCF-7 cells [1],10 nM
"COC(=O)C(Cc1ccccc1)NP(=O)(O)OCC1OC(n2cnc3c(N)nccc32)C(O)C1O (stereo not shown) [Compound 5, 3-Deaza adenosine-5-N-(1-carbomethoxy-2-phenylethyl) phosphoramidate]",antiviral activity relative to DZA,HIV-1,nearly ten-fold more active than DZA
same,IC50,HIV-1; HIV-1 isolate A012 post-AZT,> 10000 nM
same,IC50,HIV-1; HIV-1 isolate A012 pre-AZT,9.3 nM
"COC(=O)C(Cc1c[nH]c2ccccc12)NP(=O)(O)OCC1OC(n2cnc3c(N)nccc32)C(O)C1O (stereo not shown) [Compound 6, 3-Deaza adenosine-5-N-(1-carbomethoxy-2-indol-3-ylethyl)-phosphoramidate]",antiviral activity relative to DZA,HIV-1,nearly forty-fold more active than DZA
same,IC50,HIV-1; HIV-1 isolate A012 post-AZT,> 10000 nM
same,IC50,HIV-1; HIV-1 isolate A012 pre-AZT,4.4 nM
"COC(=O)C(Cc1ccccc1)NP(=O)(O)OCC1CC(n2cnc3c(N)nccc32)C(O)C1O (stereo not shown) [Compound 7, 3-Deaza aristeromycin-5-N-(1-carbomethoxy-2-phenylethyl)-phosphoramidate]",IC50,HIV-1; HIV-1 isolate G910 AZTr,10000 nM
same,IC50,HIV-1; HIV-1 isolate LAI,400 nM
same,antiviral activity compared to DZAri,HIV-1; preliminary experiments,comparable antiviral activity to DZAri
"COC(=O)[C@H](Cc1c[nH]c2ccccc12)NP(=O)(O)OC[C@H]1O[C@@H](n2cc(C)c(=O)[nH]c2=O)C[C@@H]1N=[N+]=[N-] [Compound 9, 3-Azido-3-deoxythymidine-5-methoxy-L-trytophanyl-phosphoramidate]",IC50,[2]; [4],300 nM
same,IC50,[2]; [5],350 nM
same,solubility in water relative to AZT,Log P,one of two orders of magnitude more soluble in water than AZT
same,effect on tumor size,rat mammary carcinomas,complete tumor registration in ten days
same,CC50,MCF-7 cells [1],30 nM
same,fold more toxic than the D-phenylalanine derivative 12,MCF-7 cells [3],at least 100 fold
same,fold more toxic than the D-tryptophan derivative 10,MCF-7 cells [3],> 3000 fold
same,fold less toxic than AZT,MCF-7 cells [3]; MCF7 cells,three-fold less toxic than AZT
"COC(=O)[C@@H](Cc1c[nH]c2ccccc12)NP(=O)(O)OC[C@H]1O[C@@H](n2cc(C)c(=O)[nH]c2=O)C[C@@H]1N=[N+]=[N-] [Compound 10, 3-Azido-3-deoxythymidine-5-methoxy-D-trytophanyl-phosphoramidate]",IC50,[2]; [4],1000 nM
same,IC50,[2]; [5],1000 nM
"COC(=O)[C@H](Cc1ccccc1)NP(=O)(O)OC[C@H]1O[C@@H](n2cc(C)c(=O)[nH]c2=O)C[C@@H]1N=[N+]=[N-] [Compound 11, 3-Azido-3-deoxythymidine-5-methoxy-L-phenylalaninylphosphoramidate]",IC50,[2]; [4],30000 nM
same,IC50,[2]; [5],15000 nM
same,solubility in water relative to AZT,Log P,one of two orders of magnitude more soluble in water than AZT
same,IC50,MCF-7 cells [3]; MCF7 cells,400 ± 50 nM
same,fold less toxic than AZT,MCF-7 cells [3]; MCF7 cells,40 fold
"COC(=O)[C@@H](Cc1ccccc1)NP(=O)(O)OCC1OC(n2cc(C)c(=O)[nH]c2=O)CC1N=[N+]=[N-] (stereo partly drawn) [Compound 12, 3-Azido-3-deoxythymidine-5-methoxy-D-phenylalaninylphosphoramidate]",IC50,[2]; [4],50 nM
same,IC50,[2]; [5],85 nM
"Nc1nccc2c1ncn2[C@@H]1C[C@H](CO)[C@@H](O)[C@H]1O [DZAri, 3-deaza aristeromycin, reference compound]",IC50,HIV-1; HIV-1 isolate A012 post-AZT,365 nM
same,IC50,HIV-1; HIV-1 isolate A012 pre-AZT,141 nM

# Read-outs that look alike come from different tables or passages of the source.
